Among all 410,000 compounds or so, about 6,400 (1.6%) were called active. This list was built around the results that the source calls inconclusive (neither active nor inactive); the mix of calls is not that of the screen. Calls follow the shape of the dose curve; as a rule, active = well fitted inhibition curve with a large enough effect; inconclusive = small, poorly fitted or top-dose-only effect; inactive = no such curve, though single readings can be large or run the other way. No potency is given beside an inconclusive call; the fits are too rough.
The compounds below were run against Glucagon-like peptide 1 receptor (Homo sapiens) (UniProt P43220) (assay: qHTS of GLP-1 Receptor Inverse Agonists (Inhibition Mode)). Conditions: HEK293 GLP-1R CRE-luciferase, luminescence, 24 h, GLP-1R form is constitutively active; series mostly up to 38.3 µM.
Chain of UniProt P43220 (P43220 whole entry, looked up): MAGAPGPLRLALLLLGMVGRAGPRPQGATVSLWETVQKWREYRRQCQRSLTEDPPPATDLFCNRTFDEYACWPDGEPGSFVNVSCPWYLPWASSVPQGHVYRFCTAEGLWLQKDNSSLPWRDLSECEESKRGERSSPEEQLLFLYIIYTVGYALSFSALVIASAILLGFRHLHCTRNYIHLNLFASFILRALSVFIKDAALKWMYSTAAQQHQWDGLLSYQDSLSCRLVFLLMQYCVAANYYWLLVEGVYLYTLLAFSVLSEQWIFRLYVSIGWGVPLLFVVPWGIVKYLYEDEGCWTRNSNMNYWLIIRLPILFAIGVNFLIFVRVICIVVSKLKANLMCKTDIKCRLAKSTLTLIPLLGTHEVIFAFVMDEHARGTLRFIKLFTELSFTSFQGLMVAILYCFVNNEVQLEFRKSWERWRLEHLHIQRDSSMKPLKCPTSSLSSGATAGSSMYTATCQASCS
Procedure, shortened: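 Constitutively active GLP-1R drives a cAMP-responsive luciferase in stably transfected HEK293 cells; test compounds are added after overnight (12 h) attachment and left 24 hr, and signal loss in luminescence marks inhibition.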
Also: nearly all actives have a fitted effect of over 55% in size.
Potency is read from the fitted curve at half-maximal effect; tags tell the direction and shape of the fitted curve.

| Compound | Potency |
| --- | --- |
| O=C(CC12CC3CC(CC(C3)C1)C2)N1CCN(S(=O)(=O)c2cccs2)CC1 | inconclusive [inhibitor, single point] |
| CCN(CC(=O)Nc1c(F)cccc1F)C(=O)C1CCN(c2ncnc3sc(C)c(C)c23)CC1 | inconclusive [inhibitor, single point] |
| O=C(CC1C(=O)NCCN1C(=O)c1ccc(Cl)cc1)Nc1ccc(F)cc1 (stereo not drawn) | inactive |
| O=C(NC1CCCC1)C(c1c(F)cccc1Cl)N(C(=O)c1csnn1)C1CC1 (stereo not drawn) | inconclusive [inhibitor, single point] |
| O=[N+]([O-])c1ccccc1/C=N\N1CCN(Cc2ccccc2Cl)CC1 | inactive |
| Cc1cc(C(=O)N(C)CC2CCCN(CCc3ccc(F)cc3)C2)c(C)o1 (stereo not drawn) | inconclusive [inhibitor, partial curve, poor fit] |
| O=C(c1ccc(-c2ccccc2Cl)o1)N1CCN(c2ccccc2O)CC1 | inconclusive [inhibitor, single point] |
| CN(Cc1c(C(=O)N/N=C/c2cccs2)nnn1-c1nonc1N)c1ccccc1 | inconclusive [inhibitor, partial curve, poor fit] |
| Cc1cc(C)cc(-n2cc[nH]c2=S)c1 | inconclusive [inhibitor, single point] |
| NC1=NC2(CCC(c3ccccc3)CC2)n2c(nc3ccccc32)N1 (stereo not drawn) | inconclusive [inhibitor, single point] |
| CC(Sc1nnc(Cc2cccs2)n1C1CCCCC1)C(=O)NCc1ccco1 (stereo not drawn) | inconclusive [inhibitor, full curve, poor fit] |
| Cc1cccc(NC(=O)C2CCC(CNC(=O)[C@@H]3Cc4ccccc4CN3)CC2)c1 (stereo partly drawn) | inconclusive [inhibitor, single point] |
| Cc1cc(C(=O)CSc2nnc(-c3ccco3)o2)c(C)n1Cc1ccco1 | inconclusive [inhibitor, partial curve] |
| CC(C)(C)C(=O)Nc1ccc2oc(-c3cc(F)c(F)cc3Cl)nc2c1 | inconclusive [inhibitor, partial curve, poor fit] |
| CN(C)CCCn1c2c(c(SCC(=O)Nc3cccc4ccccc34)nc1=O)CCCC2 | inconclusive [inhibitor, single point] |
| Cc1cccc(Nc2nnc(-c3ccc(C(=O)N4C[C@H]5C[C@H](C4)c4cccc(=O)n4C5)cc3)c3ccccc23)c1 | inconclusive [inhibitor, single point] |
| O=C(Nc1ccc(S(=O)(=O)N2CCOCC2)cc1)C1CCN(S(=O)(=O)c2ccc(F)cc2)CC1 | inconclusive [inhibitor, single point] |
| CC1CCCCN1CCNC(=O)c1ccc2c(c1)N(Cc1cccc(Cl)c1)C(=O)c1ccccc1S2=O (stereo not drawn) | inconclusive [inhibitor, partial curve, poor fit] |
| Cc1cccc(-n2ccnc2SCC(=O)Nc2ccc(F)cc2F)c1C | inconclusive [inhibitor, single point] |

| Compound | Potency |
| --- | --- |
| Cc1ccc(C)n1N1C(=O)/C(=C\c2ccc(Cl)cc2)SC1=S | inconclusive [inhibitor, partial curve, poor fit] |
| Cc1ccc(C)c(CNC(=O)c2ccc3c(c2)nc2n3CCCCC2)c1 | inconclusive [inhibitor, partial curve] |
| Cc1ccc(C)c(CN2CCC(CNC(=O)Nc3ccc(Br)cc3F)CC2)c1 | active: 7.08 µM |
| COC(=O)[C@@]1(Cc2ccc(OC)cc2)[C@H]2c3cc(C(=O)N4CCCC4)n(Cc4ccc(C)c(F)c4F)c3C[C@H]2CN1C(=O)c1ccccc1 | inconclusive [inhibitor, partial curve, poor fit] |
| CCOC(=O)C1(CCOc2ccccc2)CCN(Cc2cccc(OC)c2)CC1 | active: 11.2 µM |
| CCOc1cc(/C=N/NC(=O)c2ccccc2-n2cccc2)ccc1O | inconclusive [inhibitor, partial curve, poor fit] |
| c1ccc(-c2noc(-c3ccc4c(c3)OCO4)n2)nc1 | inconclusive [inhibitor, full curve, poor fit] |
| Cc1cccc(-n2c(C)cc(/C=N/NC(=O)c3cccc([N+](=O)[O-])c3C)c2C)c1 | inconclusive [inhibitor, single point] |
| COc1ccc(Cn2c(=O)c3cccnc3n(CC(=O)Nc3ccc(C)c(F)c3)c2=O)cc1 | inconclusive [inhibitor, single point] |
| CN(c1ccccc1)c1ccc(/C=N/NC(=O)CC#N)cc1 | inconclusive [inhibitor, partial curve, poor fit] |
| COc1ccc(C2CC(c3cccs3)=NN2C(=O)CSC2=NCCS2)cc1 (stereo not drawn) | inconclusive [inhibitor, partial curve, poor fit] |
| COc1cccc(/C=N/NC(=O)CNC(=O)c2ccco2)c1O | inconclusive [inhibitor, partial curve] |
| CC(C)(C)OC(=O)NCCCCCNC(=O)c1[nH]cnc1C(=O)Nc1ccc(Cl)cc1 | inconclusive [inhibitor, single point] |
| CCN(CC)c1ccc(-n2c(C)cc(C=O)c2C)cc1 | inconclusive [inhibitor, partial curve, poor fit] |
| CCS(=O)(=O)c1ncc(Cl)c(C(=O)Nc2ccc(C)cc2)n1 | inconclusive [inhibitor, single point] |
| N#Cc1nc(Cc2ccccc2)oc1N1CCC(Cc2ccccc2)CC1 | inconclusive [inhibitor, single point] |
| Cc1cc(NC(=O)CCS(=O)(=O)c2cc(Br)cc3c2N(C(=O)C2CC2)CC3)ccc1Br | inactive |
| COc1c(O)cccc1/C=N/NC(=O)Cn1ccnc1C | inconclusive [inhibitor, single point] |
| Cc1ccccc1C(=O)c1cccn1CC(=O)NC1CCCC(C)C1C (stereo not drawn) | inconclusive [inhibitor, partial curve, poor fit] |

Reference: PubChem BioAssay AID624417 (National Center for Advancing Translational Sciences (NCATS), 2012)
